Measured values as given in the supplement of paper PMC10126150.
Values marked as one replicate rest on one cluster of the flow cell; about a third of the high ones do not repeat.

Tested on: ATP
Assay: switch fluorescence ratio, 500 uM ATP over buffer (Cy3 cluster intensity, sum of 5 cycles each) (fold (ratio)); higher = stronger signal-on switching upon ATP binding; sequences stand for … in TCGTCGGCAGCGTCAGATGTGTATAAGAGACAGTTTTTTTTTTTTTTTTTTTTTTTTT…TC
Details: aptamer strand: ATP DNA aptamer (quencher-CACCTGGGGGAGTATTGCGGAGGAAGG + anchor), 100 nM annealed; ATP concentration: 500 uM; one replicate
Procedure, shortened: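 Five buffer/ATP imaging cycles were run on Cy3-labelled switching-strand clusters on a modified Illumina MiSeq flow-cell, with NaOH stripping and re-annealing between cycles. In each cycle, clusters annealed to 100 nM quencher-labelled ATP aptamer were imaged in selection buffer, then after 15 min with 500 uM ATP at 22 °C. Per cluster, the fluorescence ratio is summed target-cycle over summed buffer-cycle Cy3 intensity, averaged per switch-domain sequence. Only clusters within 100-1000 RFU were kept.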
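Note: ATP exposure 15 min at 22 °C before imaging.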

Row | Sequence | switch fluorescence ratio
1 | TTTGTGTGAA | 1.05
2 | ACCGTAATTC | 4.45
3 | ATAGAAGCCT | 1.18
4 | TGTGAGCGGA | 0.996
5 | AACTTCTGTG | 0.977
6 | TCGTTTACGT | 1
7 | TGGGCTTGGG | 0.953
8 | TATAGAGAGC | 0.972
9 | GGCAGACACT | 1.01
10 | GCGCGCAAGG | 0.967
11 | GTGAGAACG | 1.04
12 | GCAAGATAAT | 0.955
13 | GGACAATGGT | 0.992
14 | TGCCGGTATG | 0.96
15 | GAGGTGCAA | 1.11
16 | GGGGAAACTC | 2.37
17 | TCCGCCGGAG | 1.47
18 | TCAACGTTTG | 1.05
19 | GTATTTGCTA | 0.989
20 | GAGCGTTTG | 0.966
21 | GATGAATAGA | 0.993
22 | CGTTGGCAAC | 1
23 | TAGATTGGTT | 0.98
24 | ATGGGCCTAT | 1.05
25 | TGTACGCTCA | 1.04
26 | CTGCGTGGAT | 1.03

Row | Sequence | switch fluorescence ratio
27 | GCCACTTAAC | 1.55
28 | CGAACGTA | 1.05
29 | CGACACTCTG | 1.04
30 | AGCTTTCGGC | 1.03
31 | ATGAGAGTGT | 0.956
32 | TCCACGTTG | 0.99
33 | GACGGGCTGA | 1.01
34 | AAGAGGGAGA | 0.997
35 | TGGCTCTTGT | 1.01
36 | GTTCTTTGTC | 0.984
37 | ATGGAAACAC | 1.04
38 | AGGCAAGGAG | 0.957
39 | CGCAATCTGT | 6.53
40 | TAGACTAATT | 1.01
41 | TAGATATGGG | 0.965
42 | TTTAATGT | 0.976
43 | AGCCGGTTAG | 1.01
44 | CAAGGGTTT | 0.994
45 | CGTTCACTAT | 1.03
46 | TCGGTACTTA | 1.07
47 | ATCTGAACGA | 0.965
48 | CCGCCGCAGC | 1.65
49 | CTTGTACCTG | 1.08
50 | CGGGTAAGAT | 0.982
51 | AATAGTCCGG | 0.982
52 | TCGGCCTGGT | 1.02

Row | Sequence | switch fluorescence ratio
53 | GGTGGTACCA | 1.04
54 | CTGAGCGAAA | 1.17
55 | CATCATAGTC | 1.18
56 | TATCGGCGGT | 1
57 | CTAGTCCTAG | 0.983
58 | GTGTATGCGA | 1.01
59 | GGTATATTGC | 0.99
60 | AATACTCGCT | 1.18
61 | TATTAAAGCT | 1.15
62 | GCCGGAGGAC | 1.1
63 | TTGACACTAC | 1.38
64 | CAGTATATGG | 0.993
65 | GAGTTGTCAG | 0.992
66 | CCCGGAGACT | 1.19
67 | AATGCCCGTG | 1.05
68 | TTGGTCAAAG | 1.03
69 | AGGTACGGTA | 1.04
70 | ATTCACGACC | 1.21
71 | AAATTGATAG | 0.998
72 | GAAGAGAATG | 0.953
73 | GATCAAACAA | 1.07
74 | AGGTTTTAAT | 1
75 | TGCCTCATTT | 1.03
76 | GTTTCTATAA | 1.01
77 | AGCACTTTT | 1.02
78 | TCAGGTCTTA | 1.05

Row | Sequence | switch fluorescence ratio
79 | TCAGTGTTGG | 0.979
80 | TCCGTCCACC | 1.17
81 | CAGTTAATGT | 1
82 | GGTGTTTGGC | 0.954
83 | AGTTATTTTG | 1
84 | AGAAGTCATG | 0.966
85 | AACGCTTTGA | 1.1
86 | CTGATTTTCG | 1.04
87 | TAATCTGGTG | 1.05
88 | TCAGATGTTC | 1.02
89 | AGGAGTTTA | 0.984
90 | TCCCAGGAT | 1.05
91 | TGATGGTGTG | 0.946
92 | TCTCTCTGTG | 1.01
93 | GATCTAACTA | 1
94 | ACATGCTCCA | 0.992
95 | AGGGTATGG | 1.02
96 | CCAAGTCCT | 1
97 | AGCGACGAGA | 1.01
98 | CTAACTCGTT | 0.975
99 | ACCAACCTAC | 1.41
100 | GTTAGGTGGT | 1.17
101 | TAGCGAGTCA | 0.971
102 | ACATTATTCC | 1.09
103 | ATCTCAAATA | 1.01
104 | TAAACAGGCT | 1.05

Row | Sequence | switch fluorescence ratio
105 | GGGATGGTGA | 1.01
106 | GTGAGGGCAG | 0.985
107 | CTGAGGCTTT | 2.41
108 | CAACAAGGTT | 0.993
109 | CAAGACTTAC | 1.32
110 | GTTTTTGTG | 1.06
111 | CTTCTCACCC | 1.03
112 | TAGAGTTAAT | 0.983
113 | TTGAGGCCGA | 1.02
114 | AGTGGATTCG | 1.02
115 | ATAGAATGC | 1.03
116 | GTAGGATGGT | 1
117 | TTAAATTGTG | 0.981
118 | GGGACACCAA | 1.08
119 | AGTTTATTAA | 0.992
120 | TGAACCTG | 0.988
121 | TTATGCTCTG | 1.01
122 | TATACATATG | 0.981
123 | TGGGGCAACT | 1.02
124 | TAGGCCTCCA | 1.02
125 | GACGTTACGA | 1.41
126 | CTATTTTATG | 0.98
127 | CCGGATAAGC | 1.46
128 | AACGTCTAGC | 1.08
129 | TACAAAGAAT | 1.03
130 | TATGCAACTG | 0.997

Row | Sequence | switch fluorescence ratio
131 | AAGCGGCCTC | 1.01
132 | AATCAGTGAA | 1.02
133 | TATTTAAGCG | 0.985
134 | CGTGGGCACT | 1.05
135 | ACCTGCGGTA | 0.981
136 | ATGCCGTCCT | 0.953
137 | AAATGGCGTA | 1.01
138 | TTCATAGAGG | 1.01
139 | TTTACAGTTC | 1
140 | AGTTGAAATC | 0.986
141 | CCCCGAACGG | 1.06
142 | CTTGGGCATC | 1.05
143 | GCAAATGGTC | 1.09
144 | TTTTTGATC | 0.989
145 | GCTATTTAGA | 0.985
146 | GGGCCGGGCA | 1.02
147 | CTTTTAAAT | 1.13
148 | AGTTTCGCCG | 1.06
149 | ATGGGGATGC | 1.05
150 | TTGACTTGAG | 0.989
151 | GGAGCATTCA | 1.32
152 | CGTTAATGCG | 0.939
153 | GGGGATAGTC | 1.01
154 | CGCTTTTCAA | 1.04
155 | GGCCCATATA | 1.01
156 | AAGCAAGCGG | 1.04

Row | Sequence | switch fluorescence ratio
157 | TCGGGTATA | 1.01
158 | TTGTCGGGAT | 1.03
159 | TCGGAAATA | 1
160 | GAGGCAGGCT | 1.07
161 | AATATCTGCC | 1.08
162 | CCAATGTGGA | 1.01
163 | CTTGGCATTA | 1.22
164 | TTCAGGGATT | 0.974
165 | ACAATTGCCC | 1.05
166 | CATGGACAGT | 1.02
167 | TGGGTCTGCA | 1.04
168 | ATCCCATTTT | 1.04
169 | CGGTCATGTC | 1.02
170 | CCCAGACAGG | 1.13
171 | ATCCGACTTG | 1.02
172 | AACCGCAGGT | 0.96
173 | TGATATACAC | 1.05
174 | TACCAGGCAT | 1
175 | CCAGACCTGC | 0.998
176 | ATAAGTGAGG | 0.973
177 | TAGACAGAGG | 1.02
178 | AAACTGTT | 0.893
179 | GGCCGGCCAT | 0.978
180 | ACTTTTCCAG | 1.04
181 | CTCACCTTTA | 1.03
182 | ACCCCCGTTA | 1.35

Row | Sequence | switch fluorescence ratio
183 | CTATATCCAC | 1.07
184 | GCATAAGAAT | 1.02
185 | ATCGTGTACG | 0.96
186 | AACGGAGAGT | 1
187 | GCCAGCGGGC | 1.03
188 | GATCATAAA | 0.991
189 | GCCTTGCTTC | 0.962
190 | TGTACCCGCG | 1.1
191 | CGGGATCGAG | 1.02
192 | ACAATGGAGA | 0.966
193 | ACGAAAAAA | 0.853
194 | GCCAAGTTTT | 0.992
195 | GTATTGCCTA | 1.01
196 | GAATTTGTAA | 0.963
197 | AAACGACGCG | 1.09
198 | TGCCTTATCA | 1.02
199 | CTAGACGTTC | 1.05
200 | CACGAAGGCG | 1.02
201 | AGCTGGCAA | 1.03
